Measured values from the RNAGym collection of RNA variant scans (doi:10.1073/pnas.2313332121).
Variants at the background level are over-represented here.

B1: TPR 5TU (parent)
chain: GGAUCUUCUCGAUCUAACAAAAAAGACAAAUCUGCCACAAAGCUUGAGAGCAUCUUCGGAUGCAGAGGCGGCAGCCUUCGGUGGCGCGAUAGCGCCAACGUUCUCAACUAUGACACGCAAAACGCGUGCUCCGUUGAAUGGAGUUUAUCAUG

Variants of: B1
Test: polymerase ribozyme fitness, log enrichment relative to wild type (log ratio); higher = more active; in vitro selection for triplet polymerase activity
How it was run: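 In triplicate, a single round of in vitro selection was run on each mutant library, PCR-built and transcribed, covering one subunit of a heterodimeric triplet polymerase ribozyme. Frozen incubation at −7 °C followed annealing with a biotinylated primer, partner subunit and triplets, and extended constructs were then gel-excised, streptavidin-captured and taken through RT-PCR. Fitness is the logarithm of genotype enrichment over wild-type enrichment, from inverse-variance-weighted replicate averages of Illumina-sequenced inputs and outputs. […] only genotypes with ≥10 input reads and ≥1 read per output were kept.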

Row | Variant | polymerase ribozyme fitness (log ratio)
1 | U44G G48A G84A | ≤ -4.2
2 | U44G G48U G86A G100C C105A G126A U134C | ≤ -4.2
3 | U44G G50A C57G C72G C114A G140C | ≤ -4.2
4 | U44G G50A G58A C93A G133U | ≤ -4.2
5 | U44G G50C G84A A113U U135A G136U | ≤ -4.2
6 | U44G G58C A97U A113C | ≤ -4.2
7 | U44G G59A A60C G83A C95G C103G | ≤ -4.2
8 | U44G G65A U77C C87U C105G C118U C129U G143U U148G | ≤ -4.2
9 | U44G G67U A91U A115U A120C | ≤ -4.2
10 | U44G G70C G83A C116A G152A | ≤ -4.2
11 | U44G G71A U77C C95U C116G | ≤ -4.2
12 | U44G G81C C129A G136A | ≤ -4.2
13 | U44G G136A | -3.71
14 | U44G G143C | ≤ -4.2
15 | U44G U45G G86C C114A C125U | ≤ -4.2
16 | U44G U45G U61C C99G | ≤ -4.2
17 | U44G U55G C63G G92C G152A | ≤ -4.2
18 | U44G U55G G74U G86U | ≤ -4.2
19 | U44G U55G U78C C85U U101G | ≤ -4.2
20 | U44G U56A C72U C85G G88U A106G | ≤ -4.2
21 | U44G U56A G84U | ≤ -4.2
22 | U44G U56G G70C C85G | ≤ -4.2
23 | U44G U61A C87U C93G A110U G136U | ≤ -4.2
24 | U44G U77G U90A | ≤ -4.2

Row | Variant | polymerase ribozyme fitness (log ratio)
25 | U44G U135A | -3.83
26 | U45A A47C G50C A73U C93G C99U G140A | ≤ -4.2
27 | U45A A47C U61A G92A C114A C123G U146G | ≤ -4.2
28 | U45A A47U G86U C125A | ≤ -4.2
29 | U45A A49C G71C G83C C87U C96U A115U G126A G140C | ≤ -4.2
30 | U45A A49G G50C C87A U134G G136U A142G | ≤ -4.2
31 | U45A A49G G84U A115G A120G | ≤ -4.2
32 | U45A A49U C75A G83C C87G | ≤ -4.2
33 | U45A A52C U55A A64C G88U | ≤ -4.2
34 | U45A A52G C87G U109A | ≤ -4.2
35 | U45A A52G C116G | -3.56
36 | U45A A52G G67A G83U U102A U144A | ≤ -4.2
37 | U45A A52G G80A G81C A113C C131G | ≤ -4.2
38 | U45A A52U G70A C87A C116A C118U U135G G141A | ≤ -4.2
39 | U45A A60U C76A C87G | ≤ -4.2
40 | U45A A60U C95U C114G | ≤ -4.2
41 | U45A A64C U82C C85U | ≤ -4.2
42 | U45A A66C C76A G88C G92C A121G G128C | ≤ -4.2
43 | U45A A66G U77G U109G A120C C132U A142C U146G | ≤ -4.2
44 | U45A A66U | ≤ -4.2
45 | U45A A73C C96A A113U A115U U145C | ≤ -4.2
46 | U45A A73C G92A C95G | ≤ -4.2
47 | U45A A73G A110U | ≤ -4.2
48 | U45A A73G C85G A89G C108A | ≤ -4.2

Row | Variant | polymerase ribozyme fitness (log ratio)
49 | U45A A73U | ≤ -4.2
50 | U45A A91C | ≤ -4.2
51 | U45A A91C C95G A142U | ≤ -4.2
52 | U45A A106G | -1.7
53 | U45A C51U C54U G92U | -3.95
54 | U45A C51U G65U A66G G88U A121G U135C | ≤ -4.2
55 | U45A C54G U56A U82G A91C | ≤ -4.2
56 | U45A C54U C99A A110U C116G | ≤ -4.2
57 | U45A C57A G133C U139A A150C | ≤ -4.2
58 | U45A C57G C75U | ≤ -4.2
59 | U45A C57U G86A U90G | ≤ -4.2
60 | U45A C69A G88C A97C C125G | ≤ -4.2
61 | U45A C69U C85U U90C A119C | ≤ -4.2
62 | U45A C75U | ≤ -4.2
63 | U45A C75U U90A C93U A119U G141C | ≤ -4.2
64 | U45A C76U A98U G100C U101G A106U | -4
65 | U45A C76U C125G | -3.81
66 | U45A C79G G84C C93G U102G | ≤ -4.2
67 | U45A C85A A121G G140A | ≤ -4.2
68 | U45A C85G | -3.95
69 | U45A C85U | -3.1
70 | U45A C85U C87U C96G | ≤ -4.2
71 | U45A C85U C118G A138U | -4.16
72 | U45A C87G | ≤ -4.2

Row | Variant | polymerase ribozyme fitness (log ratio)
73 | U45A C93G G100A | ≤ -4.2
74 | U45A C99A | ≤ -4.2
75 | U45A C114U | -4.01
76 | U45A G46C A98U | ≤ -4.2
77 | U45A G46C C57U G81U C93U | ≤ -4.2
78 | U45A G46C C76A C96U C105U | ≤ -4.2
79 | U45A G46C G50C G67C C95G U101A | ≤ -4.2
80 | U45A G46C U56A G84U G88U U90G C99A | ≤ -4.2
81 | U45A G48A G50C G59C C79G | ≤ -4.2
82 | U45A G48C A106G | ≤ -4.2
83 | U45A G50A C87U A98G A115C U127A A147U | ≤ -4.2
84 | U45A G50A U55G C87G G94C | ≤ -4.2
85 | U45A G50A U135G | ≤ -4.2
86 | U45A G58A C69G C76U C99A A147G | ≤ -4.2
87 | U45A G58A G65C C95U C105U | ≤ -4.2
88 | U45A G59C C85A A89G U111G | ≤ -4.2
89 | U45A G62C A107U | ≤ -4.2
90 | U45A G65A U82A A106U | -0.414
91 | U45A G65U | ≤ -4.2
92 | U45A G67A C79A A91U A121G | ≤ -4.2
93 | U45A G68A C87G G112C | ≤ -4.2
94 | U45A G68C C85U A97U G140A A142C | ≤ -4.2
95 | U45A G68U G92U C149G | ≤ -4.2
96 | U45A G70U C79U G92U A119U U130G | ≤ -4.2

Row | Variant | polymerase ribozyme fitness (log ratio)
97 | U45A G71A A115C G133A U144G | ≤ -4.2
98 | U45A G71A C76A G81U C93U A98U C118A U135A | ≤ -4.2
99 | U45A G84C C95A G143A | ≤ -4.2
100 | U45A G86A A142G | ≤ -4.2
101 | U45A G86U G88U C99G G117U | ≤ -4.2
102 | U45A G88C | ≤ -4.2
103 | U45A G88U A89C U134G | ≤ -4.2
104 | U45A G126A | -2.15
105 | U45A G140U | -4.19
106 | U45A U53A G58A G81A C96G | ≤ -4.2
107 | U45A U53A G83A | ≤ -4.2
108 | U45A U56A G80C U102G A119U | ≤ -4.2
109 | U45A U56A G88A U101A C149U | ≤ -4.2
110 | U45A U56A U104C C116U | ≤ -4.2
111 | U45A U56G A73G C96G C99G A107U G140A | ≤ -4.2
112 | U45A U61G U82C G83C A97C G100A C103A | ≤ -4.2
113 | U45A U77A G92A A110U | ≤ -4.2
114 | U45A U77G G86U U104A C123A | ≤ -4.2
115 | U45A U109C | -3.44
116 | U45A U148G C149G | ≤ -4.2
117 | U45C A52G C57A G92C | -2.64
118 | U45C A64G C75G A91C U144G | ≤ -4.2
119 | U45C A66C G67C C93U A113U | ≤ -4.2
120 | U45C A91U C96A A98U U101G | ≤ -4.2

Row | Variant | polymerase ribozyme fitness (log ratio)
121 | U45C C54U A91U C96U G126U C132U | ≤ -4.2
122 | U45C C79U C87U A110U A113U A120U A142U | ≤ -4.2
123 | U45C C132G | ≤ -4.2
124 | U45C G46A U61G G62C C76A | ≤ -4.2
125 | U45C G62C C87G U145C | ≤ -4.2
126 | U45C G84C G92A C96G | ≤ -4.2
127 | U45C G86A U109G U134G | ≤ -4.2
128 | U45C U53G G88C A106U C108U | ≤ -4.2
129 | U45C U56C G65A C85A G86U G126A C131U | ≤ -4.2
130 | U45C U77G C79G | ≤ -4.2
131 | U45G A47C A73U G92A C149G | ≤ -4.2
132 | U45G A49U A60G U61G A107U U127G | ≤ -4.2
133 | U45G A52C G65C A91U U102G C103G A106G A115C | ≤ -4.2
134 | U45G A52G A66G C79G A110U U144A | ≤ -4.2
135 | U45G A52U | -3.15
136 | U45G A64G G81U A91C G92A | ≤ -4.2
137 | U45G A66C A122U | ≤ -4.2
138 | U45G A89G C93A U135A | ≤ -4.2
139 | U45G A110U C114U C125U G140A | ≤ -4.2
140 | U45G C51U C96G A107C A113G G126C | ≤ -4.2
141 | U45G C54G C85A C95U | ≤ -4.2
142 | U45G C54U G94A C96G C108U A122U G141A | ≤ -4.2
143 | U45G C54U U55G C95A U111C G124U A137C U144G | ≤ -4.2
144 | U45G C57A | 0.374

Row | Variant | polymerase ribozyme fitness (log ratio)
145 | U45G C57G A73G U101A C123A C129G | ≤ -4.2
146 | U45G C57G C85U U134G C149A | ≤ -4.2
147 | U45G C57U G70C C76A A91G C93A | ≤ -4.2
148 | U45G C69A | -1.95
149 | U45G C69A G92U A115G | ≤ -4.2
150 | U45G C75G C87A A120C G141C | ≤ -4.2
151 | U45G C76A G86A G141C C149G | ≤ -4.2
152 | U45G C79A C87U G92A | ≤ -4.2
153 | U45G C79A C96G C99A A119G G124C A150G | ≤ -4.2
154 | U45G C85G C93A A98U | ≤ -4.2
155 | U45G C85G U148G | ≤ -4.2
156 | U45G C85U | -0.0479
157 | U45G C87A | ≤ -4.2
158 | U45G C87U | -1.32
159 | U45G C87U U111G A147C | ≤ -4.2
160 | U45G C93A A113U C116U | ≤ -4.2
161 | U45G C93A C116U | -2.88
162 | U45G C103A A150U | ≤ -4.2
163 | U45G G46C A113U C129U | ≤ -4.2
164 | U45G G46C A119G | ≤ -4.2
165 | U45G G48A C87U C93A C118U | ≤ -4.2
166 | U45G G48A G88C A106G | ≤ -4.2
167 | U45G G50A A73C C93U C96U C99A C108A G112C G124U U127G A142G C149G | ≤ -4.2
